{"source": "the supplement of paper PMC11876631", "proteins": {"B1": {"name": "ribD M7D (protein)", "chain": "MQDEYYDARALKLAQRGRFTTHPNPNVGCVIVKDGEIVGEGYHQRAGEPHAEVHALRMAGEKAKGATAYVTLEPCSHHGRTPPCCDALIAAGVARVVASMQDPNPQVAGRGLYRLQQAGIDVSHGLMMSEAEQLNKGFLKRMRTGFPYIQLKLGASLDGRTAMASGESQWITSPQARRDVQLLRAQSHAILTSSATVLADDPALTVRWSELDEQTQALYPQQNLRQPIRIVIDSQNRVTPVHRIVQQPGETWFARTQEDSREWPETVRTLLIPEHKGHLDLVVLMMQLGKQQINSIWVEAGPTLAGALLQAGLVDELIVYIAPKLLGSDARGLCTLPGLEKLADAPQFKFKEIRHVGPDVCLHLVGA"}, "B2": {"name": "ribD M7P (protein)", "chain": "B1 chain with D7P"}, "B3": {"name": "ribE I77A (protein)", "chain": "MNIIEANVATPDARVAITIARFNNFINDSLLEGAIDALKRIGQVKDENITVVWVPGAYELPLAAGALAKTGKYDAVAALGTVIRGGTAHFEYVAGGASNGLAHVAQDSEIPVAFGVLTTESIEQAIERAGTKAGNKGAEAALTALEMINVLKAIKA"}, "B4": {"name": "ribE I77W (protein)", "chain": "B3 chain with A77W"}, "B5": {"name": "ribE I77Q (protein)", "chain": "B3 chain with A77Q"}, "B6": {"name": "ribE L79A (protein)", "chain": "B3 chain with A77I, L79A"}, "B7": {"name": "ribE L79Q (protein)", "chain": "B3 chain with A77I, L79Q"}, "B8": {"name": "ribE L79D (protein)", "chain": "B3 chain with A77I, L79D"}, "B9": {"name": "ribE L79P (protein)", "chain": "B3 chain with A77I, L79P"}, "B10": {"name": "ribE I148W (protein)", "chain": "B3 chain with A77I, I148W"}, "B11": {"name": "ribE I148Q (protein)", "chain": "B3 chain with A77I, I148Q"}, "B12": {"name": "ribE I19A (protein)", "chain": "B3 chain with I19A, A77I"}, "B13": {"name": "ribE I19Q (protein)", "chain": "B3 chain with I19Q, A77I"}, "B14": {"name": "ribE L60A (protein)", "chain": "B3 chain with L60A, A77I"}, "B15": {"name": "ribE L60Q (protein)", "chain": "B3 chain with L60Q, A77I"}, "B16": {"name": "ribE V76A (protein)", "chain": "B3 chain with V76A, A77I"}, "B17": {"name": "ribE V76W (protein)", "chain": "B3 chain with V76W, A77I"}, "B18": {"name": "ribE V76Q (protein)", "chain": "B3 chain with V76Q, A77I"}, "B19": {"name": "ribE V76P (protein)", "chain": "B3 chain with V76P, A77I"}, "B20": {"name": "ribE L145A (protein)", "chain": "B3 chain with A77I, L145A"}, "B21": {"name": "ribE L145Q (protein)", "chain": "B3 chain with A77I, L145Q"}}, "biological_target": "Escherichia coli (laboratory strain)", "experiment": "barcode share on antibiotic plates over drug-free plates; higher = less susceptible", "protocol": "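A pool of E. coli strains, each edited to carry one amino-acid change in an essential protein, was grown for 48 h on minimal glucose agar with or without antibiotic; strain barcodes were sequenced; mean of two replicates.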", "key": {"[1]": {"conditions": "antibiotic: carbenicillin, 2× MIC (3.1 µg/mL)"}, "[2]": {"conditions": "antibiotic: gentamicin, 2× MIC (MIC 0.45 µg/mL)"}}, "note": "Where a chain is given by its changes, count along the chain named. In names and notes the source's numbering stands. ± gives the standard deviation of the averaged measurements. Laboratory Escherichia coli strains with one amino-acid change in an essential protein, pooled on minimal glucose agar with carbenicillin or gentamicin at twice the control MIC (plus kanamycin and chloramphenicol for the plasmids), 48 h. Fold change of barcode share against drug-free plates; higher = less susceptible. Active = above 20 in both replicates (the paper's putatively resistant). '<' = one read or none on drug, '>' = one read or none on a drug-free plate. Shares are relative, so most strains fall below 1 when a few take over. Listed are strains with at least 15 reads on both drug-free plates, and hits; most hits rest on fewer reference reads. Replicate rank correlation about 0.5. Edits are read from barcodes."}
{"protein": "B1", "values": [{"measurement": "fold change of barcode share", "setting": "[1]", "result": "0.377 ± 0.086"}, {"measurement": "fold change of barcode share", "setting": "[2]", "result": "0.0968 ± 0.12"}]}
{"protein": "B2", "values": [{"measurement": "fold change of barcode share", "setting": "[1]", "result": "0.384 ± 0.14"}]}
{"protein": "B3", "values": [{"measurement": "fold change of barcode share", "setting": "[1]", "result": "0.475 ± 0.17"}]}
{"protein": "B4", "values": [{"measurement": "fold change of barcode share", "setting": "[1]", "result": "0.873 ± 0.046"}, {"measurement": "fold change of barcode share", "setting": "[2]", "result": "< 0.0096"}]}
{"protein": "B5", "values": [{"measurement": "fold change of barcode share", "setting": "[1]", "result": "0.282 ± 0.21"}, {"measurement": "fold change of barcode share", "setting": "[2]", "result": "< 0.0108"}]}
{"protein": "B6", "values": [{"measurement": "fold change of barcode share", "setting": "[1]", "result": "0.365 ± 0.15"}, {"measurement": "fold change of barcode share", "setting": "[2]", "result": "0.37 ± 0.066"}]}
{"protein": "B7", "values": [{"measurement": "fold change of barcode share", "setting": "[1]", "result": "0.315 ± 0.16"}]}
{"protein": "B8", "values": [{"measurement": "fold change of barcode share", "setting": "[1]", "result": "0.226 ± 0.19"}]}
{"protein": "B9", "values": [{"measurement": "fold change of barcode share", "setting": "[1]", "result": "0.227 ± 0.12"}, {"measurement": "fold change of barcode share", "setting": "[2]", "result": "< 0.0199"}]}
{"protein": "B10", "values": [{"measurement": "fold change of barcode share", "setting": "[1]", "result": "0.269 ± 0.16"}, {"measurement": "fold change of barcode share", "setting": "[2]", "result": "< 0.00953"}]}
{"protein": "B11", "values": [{"measurement": "fold change of barcode share", "setting": "[1]", "result": "0.435 ± 0.2"}, {"measurement": "fold change of barcode share", "setting": "[2]", "result": "0.0221 ± 0.0091"}]}
{"protein": "B12", "values": [{"measurement": "fold change of barcode share", "setting": "[1]", "result": "0.579 ± 0.1"}, {"measurement": "fold change of barcode share", "setting": "[2]", "result": "< 0.00301"}]}
{"protein": "B13", "values": [{"measurement": "fold change of barcode share", "setting": "[1]", "result": "0.411 ± 0.22"}, {"measurement": "fold change of barcode share", "setting": "[2]", "result": "0.0126 ± 0.0095"}]}
{"protein": "B14", "values": [{"measurement": "fold change of barcode share", "setting": "[1]", "result": "0.297 ± 0.037"}, {"measurement": "fold change of barcode share", "setting": "[2]", "result": "0.126 ± 0.18"}]}
{"protein": "B15", "values": [{"measurement": "fold change of barcode share", "setting": "[1]", "result": "0.353 ± 0.06"}, {"measurement": "fold change of barcode share", "setting": "[2]", "result": "0.8495 ± 0.0031"}]}
{"protein": "B16", "values": [{"measurement": "fold change of barcode share", "setting": "[1]", "result": "0.415 ± 0.37"}, {"measurement": "fold change of barcode share", "setting": "[2]", "result": "< 0.0145"}]}
{"protein": "B17", "values": [{"measurement": "fold change of barcode share", "setting": "[1]", "result": "0.338 ± 0.063"}, {"measurement": "fold change of barcode share", "setting": "[2]", "result": "< 0.00738"}]}
{"protein": "B18", "values": [{"measurement": "fold change of barcode share", "setting": "[1]", "result": "0.478 ± 0.22"}]}
{"protein": "B19", "values": [{"measurement": "fold change of barcode share", "setting": "[1]", "result": "0.296 ± 0.057"}, {"measurement": "fold change of barcode share", "setting": "[2]", "result": "< 0.0165"}]}
{"protein": "B20", "values": [{"measurement": "fold change of barcode share", "setting": "[1]", "result": "0.298 ± 0.028"}]}
{"protein": "B21", "values": [{"measurement": "fold change of barcode share", "setting": "[1]", "result": "0.331 ± 0.066"}, {"measurement": "fold change of barcode share", "setting": "[2]", "result": "0.13 ± 0.078"}]}
